Read counts are not given, so values of variants with three or more changes are uncertain.
B1: CPEB3 Ribozyme (parent)
chain: UAACAGGGGGCCACAGCAGAAGCGUUCACGUCGCAGCCCCUGUCAGAUUCUGGUGAAUCUGCGAAUUCUGCUGUAUAUCUC

Variants of: B1
Experiment: self-cleavage, relative activity (ratio to wild type); higher = more cleavage; in vitro, sequencing
Summary of the method: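 Relative activity compares each variant's cleaved/total read fraction with that of the unmutated ribozyme. To get these fractions, barcoded CPEB3 ribozyme libraries from rounds of error-prone PCR were transcribed with T7 RNA polymerase for 5 hours at 37°C and then given 15 min of DNase I treatment before EDTA was added. The RNAs were reverse transcribed with template switching and sequenced on Illumina, and DNA sequencing linked barcodes to variants. A minimum of 5 reads applied, and three batches were averaged.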

Variant | self-cleavage
C40U U60A U74C | 0.69
U41C A45U G52U | 0.8
U41C A45U U69A | 0.34
C40A A45U U78C | 0.09
U41C A45U U60A U69A U76C | 0.64
U41C A47G A65G | 0.59
U41A U58A A64G U67C | 0.23
U41A A56G U60C U69C | 0.07
U41A U48C C79A | 0.07
C39U A64G U76C | 0.49
U41C U51C C59A | 0.33
C39U A57G U69A | 0.23
U41A A45G C50U U67A U74A | 0.18
U41A U43C U48C U60G | 0.18
U41A U51G U54C | 0.39
C40A U58C U60C U76A | 0.23
C40A U51C U54C U67C | 0.12
U41A U54C A64U G73A | 0.47
U41C A47G U54C A56G | 0.32
U41A G61A A77G | 0.18
C40U U72A U80C | 1.01
U41C U51C U60C | 0.28
U41C G46U U58C | 0.18
C39U U54C A64U | 0.08

Variant | self-cleavage
U41C A64U U69C | 0.42
U41A C44G U80C | 0.32
C40U U51C U54C U74C A77G | 0.46
U41A U49C A77U U80C | 0.05
U41C U43A U80A | 0.71
U41A A45U U54A A57C U72C | 0.12
U41A A56G A64G A77G | 0.07
C40A G42U A56G | 0.1
C39U U41A U74G | 0.39
U41A A45G A56U A57U | 0.17
U41C U49C A56G A64U | 0.27
C40U U43C U54C U60A U67C G70A | 0.05
U41A A56G A77C | 0.19
U41A A56G A77U | 0.19
U41C U48A A56G A64G | 0.39
U41A U51G U72C A75U | 0.1
U41C U49C A57G A77G U78C | 0.3
U41A A47G U54A A65G U67C U72C U80G | 0.08
U41A G63A U69A U78C | 0.12
U41C A65C U72G U80A | 0.2
U41A U48C U60G U72C | 0.15
U41C A47G G55U | 1.12
U41A A45U A57G U80C | 0.38
U41C U51A U54A | 1.16

Variant | self-cleavage
U41C C59A A75G | 0.28
C40U U49C G63U U67C A75G U78C | 0.07
C40A C62U C68A | 0.1
U41C A56C U60A U69C | 0.22
C39U C62U G73A U80A | 0.1
C40U U43C U60C | 0.15
U41A C44U G53A | 0.34
C39U U49A C50U | 0.18
U41C U43A U54C U60C | 0.19
C40U A45G U67C | 0.28
U41A U43A U66C | 0.4
C40G U51A U54A | 0.45
U41A A45G G70C | 0.22
U41A U76A U80C | 0.2
U41C A47U U66C | 0.08
U41C A64G U69C U80C | 0.34
U41A A45G A57U U60A U76C U80A | 0.06
U41C G70C A75U U76A A77U | 0.22
C40A A57G A77U | 0.18
U41C U48C U60C U69A | 0.45
U41C U54A U69A | 0.67
U41C U48C U72C | 0.44
U41A A64G A75U | 0.31
U41C U51C U67C U80A | 0.65

Variant | self-cleavage
U41C A57G A64G | 0.69
U41A U43A A57G | 0.09
U41A C44U U48C U60C | 0.2
C40U U49C A65G A77G | 0.1
U41A A65U A77G | 0.27
U41C G42C U80C | 0.4
U41C A56C U69C | 0.19
U41A G42U U72A | 0.22
U41A A47G U58A C59A | 0.14
C40U A56U A65G | 0.09
U41C U51A A57U | 0.63
U41A U43A A56C C71U | 0.1
U41C U43A A64G U69C | 0.28
U41C C79U U80C | 1.14
U41A A56G A75C | 0.21
C40U A57G U60C A64U | 0.07
U41A U48C U58C | 0.1
U41A A57G A65G | 0.23
U41A U51C A56G U67A | 0.14
U41C A77U C79U | 1.34
U41C U49A A77U U80A | 1.08
U41A U54C U67C | 0.12
U41A A45G U49A U51A A64U | 0.1
U41C U43C U51A A56U | 0.2

Variant | self-cleavage
U41C C68A U69A | 0.32
C40G U43A A45G U49A U60A U67A U78C | 0.07
U41A U48C U67A U72A U80A | 0.07
C40U U54C U72C | 0.88
C40U A65G U66C | 0.14
U41C A45G U76A | 1.07
C40A A57C C59U U69C | 0.07
C40U U51G U60C U67C | 0.17
U41C A45U U72C | 0.58
U41A U48C C71A | 0.15
U41C A45G U54C A56G C59U A65C U72A | 0
U41C A56G U60A U80C | 0.34
C39U U43A A47G U48C | 0.06
U41C A65U U67C | 0.3
U41C G42U U54C A65G | 0.15
U41C U51C G63A | 0.91
U41C U43C U54A U67C | 0.12
U41A A45G U60C | 0.33
U41C A64G G70U | 0.29
C40A U48C A77G | 0.11
C39U U67C U80C | 0.12
C40A U54A A57U U66C | 0.09
C40A U41G U48C A57G U60C U67C U76C | 0.05
C40U U49C U72C C79U | 0.22

Variant | self-cleavage
C40U U43A A47G A64G U72C C79U | 0.62
U41C U43C A56U | 0.15
U41A A56U U67A C71U | 0.05
U41C G53A A56G | 0.76
U41A U43C G55A | 0.08
U41C U48C U51A | 0.82
U41C C50A A65G | 0.17
U41A U43A A45G U69A | 0.14
U41A U54C U58C U60A U67A | 0.13
U41C A45G U60G U80C | 0.43
C40G U69A U80C | 0.1
C40U G73C C81U | 1.29
C40A U41C U49G U74A | 0.09
U41A G46U U80C | 0.15
C40U U43A U58C U69C | 0.13
U41A C59A A65G U69A U80A | 0.06
U41A A64U U74A | 0.18
U41C A45G U67C U69C | 0.16
U41A G63A U67C U69A U78C | 0.08
U41A G55U A75G U78C | 0.35
U41C A65G A77U | 0.5
C40U U41C U69A | 0.18
U41A U48A U74C | 0.12
U41A A47G G61A | 0.54

Variant | self-cleavage
U41C A47G U54A U66C C79G | 0.39
U41A A45U A77G | 0.21
U41C U51C U76A | 1.01
U41A U54A U67C U69C A75U | 0.11
C40U U41A A45C | 0.18
U41A A45G A47G A65G U78A | 0.17
U41A U43C U74C | 0.22
C40A U41G A45G U74C A75G C79A | 0.34
U41C C44A U51C C79U | 0.23
U41C A65G G73U | 1.06
C39U U48A U60C U67C U72A | 0.12
U41C A47G U48C G52A U69C | 0.37
U41C U43C U49C U72A | 0.08
C40U G70A U72A | 0.19
U41C U43C U76C A77C | 0.31
U41A U49A U69C | 0.14
U41A A57G A65G U66C | 0.18
U41A A64U U72C | 0.13
U41A A57G A64U U74C | 0.06
U41C A57C U72C | 0.33
U41C U48A G53A | 0.06
U41C C59A U80A | 0.32
C40A G46A A56G | 0.16

Source: the RNAGym collection of RNA variant scans (doi:10.1093/nar/gkz1192)
